The supplement of paper PMC8728848
The other results are listed elsewhere or left out.

How the values were obtained:
Assay in all cases: glycan array binding signal (z-score within array); higher = stronger binding
Conditions in all cases: glycan notation: IUPAC condensed, linker removed
[1] = target: Neu5Ac(a2-8)Neu5Ac
Procedure, shortened: (§1)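 Arrays were curated from the Consortium for Functional Glycomics database, 3228 in total, and kept only where the protein sequence was available. Binding is expressed as a within-array Z-score. This score was averaged across arrays of the same protein sequence at different concentrations or buffers and across linkers, and negative values can be read as non-binding.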

[2] = target: Neu5Ac(a2-8)Neu5Ac(a2-3)Gal(b1-3)GalNAc(b1-4)[Neu5Ac(a2-3)]Gal(b1-4)Glc
Procedure, shortened: as §1

[3] = target: Neu5Ac(a2-8)Neu5Ac(a2-3)Gal(b1-3)GalNAc(b1-4)[Neu5Ac(a2-8)Neu5Ac(a2-3)]Gal(b1-4)Glc
Procedure, shortened: as §1

[4] = target: Neu5Ac(a2-8)Neu5Ac(a2-3)Gal(b1-4)Glc
Procedure, shortened: as §1

[5] = target: Neu5Ac(a2-8)Neu5Ac(a2-3)Gal(b1-4)GlcNAc
Procedure, shortened: as §1

[6] = target: Neu5Ac(a2-8)Neu5Ac(a2-3)[Gal(b1-3)GalNAc(b1-4)]Gal(b1-4)Glc
Procedure, shortened: as §1

[7] = target: Neu5Ac(a2-8)Neu5Ac(a2-3)[GalNAc(b1-4)]Gal(b1-4)Glc
Procedure, shortened: as §1

[8] = target: Neu5Ac(a2-8)Neu5Ac(a2-8)Neu5Ac
Procedure, shortened: as §1

[9] = target: Neu5Ac(a2-8)Neu5Ac(a2-8)Neu5Ac(a2-3)Gal(b1-4)Glc
Procedure, shortened: as §1

[10] = target: Neu5Ac(a2-8)Neu5Ac(a2-8)Neu5Ac(a2-3)[Gal(b1-3)GalNAc(b1-4)]Gal(b1-4)Glc
Procedure, shortened: as §1

[11] = target: Neu5Ac(a2-8)Neu5Ac(a2-8)Neu5Ac(a2-3)[GalNAc(b1-4)]Gal(b1-4)Glc
Procedure, shortened: as §1

[12] = target: Neu5Ac(a2-8)Neu5Ac(a2-8)Neu5Ac(a2-8)Neu5Ac(a2-3)[GalNAc(b1-4)]Gal(b1-4)Glc
Procedure, shortened: as §1

[13] = target: Neu5Ac(a2-8)Neu5Gc(a2-3)Gal(b1-4)GlcNAc
Procedure, shortened: as §1

[14] = target: Neu5Ac(b2-6)Gal(b1-4)GlcNAc
Procedure, shortened: as §1

[15] = target: Neu5Ac(b2-6)GalNAc
Procedure, shortened: as §1

[16] = target: Neu5Ac9Ac(a2-3)Gal(b1-3)GlcNAc
Procedure, shortened: as §1

[17] = target: Neu5Ac9Ac(a2-3)Gal(b1-4)GlcNAc
Procedure, shortened: as §1

[18] = target: Neu5Ac9Ac(a2-6)Gal(b1-4)GlcNAc
Procedure, shortened: as §1

[19] = target: Neu5Gc(a2-3)Gal(b1-3)GlcNAc
Procedure, shortened: as §1

[20] = target: Neu5Gc(a2-3)Gal(b1-3)[Fuc(a1-4)]GlcNAc
Procedure, shortened: as §1

[21] = target: Neu5Gc(a2-3)Gal(b1-4)Glc
Procedure, shortened: as §1

[22] = target: Neu5Gc(a2-3)Gal(b1-4)GlcNAc
Procedure, shortened: as §1

[23] = target: Neu5Gc(a2-3)Gal(b1-4)GlcNAc(b1-3)Gal(b1-4)GlcNAc(b1-2)Man(a1-3)[Neu5Gc(a2-3)Gal(b1-4)GlcNAc(b1-3)Gal(b1-4)GlcNAc(b1-2)Man(a1-6)]Man(b1-4)GlcNAc(b1-4)GlcNAc
Procedure, shortened: as §1

[24] = target: Neu5Gc(a2-3)Gal(b1-4)[Fuc(a1-3)]GlcNAc
Procedure, shortened: as §1

[25] = target: Neu5Gc(a2-6)Gal(b1-4)GlcNAc
Procedure, shortened: as §1

[26] = target: Neu5Gc(a2-6)GalNAc
Procedure, shortened: as §1

[27] = target: Neu5Gc(a2-8)Neu5Ac(a2-3)Gal(b1-4)GlcNAc
Procedure, shortened: as §1

[28] = target: Neu5Gc(a2-8)Neu5Gc(a2-3)Gal(b1-4)GlcNAc
Procedure, shortened: as §1

[29] = target: Neu5Gc(a2-8)Neu5Gc(a2-3)Gal(b1-4)GlcNAc(b1-3)Gal(b1-4)GlcNAc
Procedure, shortened: as §1

[30] = target: Neu5Gc(a2-8)Neu5Gc(a2-6)Gal(b1-4)GlcNAc
Procedure, shortened: as §1

[31] = target: Neu5Gc(b2-6)Gal(b1-4)GlcNAc
Procedure, shortened: as §1

B1: EPL1 (Trichoderma atroviride), A0PCX2 (protein)
chain: MQLSNLFKLALFTAAVSADTVSYDTGYDDASRSLTVVSCSDGTNGLITRYHWQTQGQIPRFPYIGGAQAVAGWNSPNCGTCWKLTYSGKTIYVLAIDHTAAGFNIGLDAMNALTNGNAVALGRVSATASQVAVSNCGL
glycan array binding signal (z-score) [1]: -0.319 | glycan array binding signal (z-score) [2]: -0.378 | glycan array binding signal (z-score) [3]: 0.216 | glycan array binding signal (z-score) [4]: -0.383 | glycan array binding signal (z-score) [5]: -0.041 | glycan array binding signal (z-score) [6]: -0.002 | glycan array binding signal (z-score) [7]: 0.213 | glycan array binding signal (z-score) [8]: -0.195 | glycan array binding signal (z-score) [9]: -0.013 | glycan array binding signal (z-score) [10]: -0.047 | glycan array binding signal (z-score) [11]: -0.275 | glycan array binding signal (z-score) [12]: -0.288 | glycan array binding signal (z-score) [13]: -0.39 | glycan array binding signal (z-score) [14]: -0.294 | glycan array binding signal (z-score) [15]: -0.299 | glycan array binding signal (z-score) [16]: -0.341 | glycan array binding signal (z-score) [17]: 0.319 | glycan array binding signal (z-score) [18]: 0.049 | glycan array binding signal (z-score) [19]: -0.09 | glycan array binding signal (z-score) [20]: -0.09 | glycan array binding signal (z-score) [21]: -0.246 | glycan array binding signal (z-score) [22]: -0.074 | glycan array binding signal (z-score) [23]: 0.362 | glycan array binding signal (z-score) [24]: -0.169 | glycan array binding signal (z-score) [25]: 0.038 | glycan array binding signal (z-score) [26]: -0.456 | glycan array binding signal (z-score) [27]: -0.344 | glycan array binding signal (z-score) [28]: -0.145 | glycan array binding signal (z-score) [29]: -0.497 | glycan array binding signal (z-score) [30]: -0.247 | glycan array binding signal (z-score) [31]: -0.242
